From ChEMBL document CHEMBL4888484, “Replenishing the malaria drug discovery pipeline: Screening and hit evaluation of the MMV Hit Generation Library 1 (HGL1) against asexual blood stage Plasmodium falciparum ,using a nano luciferase reporter read-out” (2022)
In all, about 150,000 compounds went through this assay and about 540 (0.36%) showed an effect of 50% or more. The list shows a part of the results.

Tested on: Plasmodium falciparum
Assay: Primary screen in NF54 nanoGlo assay, in single point, at 2uM, 72h; a lower Z score goes with more inhibition
Type: functional, Erythrocyte
Details: timepoint 72 hour

Structure (SMILES)	% Inhibition [%]	Z score
Cc1ccc2c(c1)C(NC(=O)c1nccnc1C(N)=O)C(C)C2 (stereo unspecified)	-4	0.34
COc1cncc(CN2C[C@@H]3CN(C(=O)c4cnn(C)c4C)C[C@]3(C)C2)n1	7	-1.14
Cc1cc(Oc2ncccn2)ccc1NC(=O)N1CCOCC1	40	-1.4
CCC(=O)N1CC[C@H](Nc2ccc(Br)cc2C#N)C1	3	-0.28
CC1CN(C(=O)Cn2cc(NC(=O)c3cnn(C(C)(C)C)c3)cn2)CC(C)O1 (stereo unspecified)	-5	0.81
O=C(NCCc1csc(-c2ccccc2)n1)c1ccncc1Cl	4	-0.77
Cc1cccc(NC(=O)C2[C@H]3C=C[C@@]4(O3)C(C(=O)NC3CCCCC3C)N(C3CCCCC3)C(=O)[C@@H]24)c1 (stereo partly specified)	-6	0.88
O=C(NC[C@@]1(CCO)CCOC1)c1occ2c1CCC2	-1	0.22
Cc1ccsc1CN(C)Cc1cc(CN2CCCC2)cs1	-7	1.05
CCOC(=O)c1csc([C@@H]2CCCN2c2ncccn2)n1	-8	1.1
Oc1ccc2cc(CN3CCC[C@H](CN4CCCC4)C3)ccc2c1	97	-3
CC1CCC(NC(=O)c2cc(N3CCC[C@H](C)C3)nc3ccccc23)CC1 (stereo partly specified)	3	-0.48
CC(CO)(CO)NC(=O)C(F)(F)c1ccccc1C(F)(F)F	-12	1.3
CCCCCc1nnc(NC(=O)N2CC[C@H](C(N)=O)C2)s1	-1	0.25
COc1ncccc1C(=O)N[C@H]1CCN(Cc2ccsc2)C1	-8	1.29
Cn1cc(CCC(=O)OCC#Cc2ccc(Oc3ccccc3)cc2)cn1	0	0
CCc1nn(C)cc1NC(=O)c1cccnc1NC	2	-0.33
CC1(C)CN(S(=O)(=O)c2cccnc2)c2c(Br)cccc21	-7	1.04
O=C1CC[C@@]2(CCCN(c3ncccc3F)C2)CN1Cc1ccccc1	9	-1.35
O=C(NCCc1csc(N2CCCC2)n1)c1c(F)ccc(O)c1F	-14	2.2
CCCCC(CC)CNC(=O)[C@H]1CCC(=O)N1 (stereo partly specified)	-4	0.47
CNC(=O)c1nnsc1N1CCC(Cc2ccccc2)CC1	-2	0.28

Structure (SMILES)	% Inhibition [%]	Z score
Cc1ccc(Cl)cc1NC(=O)CN1CN(c2ccccc2)c2ncccc2S1(=O)=O	-14	1.55
CCc1cnc(NC(=O)COC[C@H]2CCCO2)o1	0	0.01
COC(=O)[C@@H]1C[C@H](O)CCN1C(=O)c1c(-c2ccccc2)noc1C	10	-1.21
CC(C)Cc1cc(C(=O)OC[C@H]2CCCO2)[nH]n1	2	-0.46
CCCc1nc(C(=O)N2CCC3(CC2)C(=O)N(C)c2ccccc23)cs1	-17	3.19
CCS(=O)(=O)[C@@H](C)c1nc(C2CC2)nn1-c1ccc(C)c(C)c1	1	-0.23
Cc1nc(-c2cc3ncccn3n2)n(C(C)(C)C)n1	-6	1.19
COc1cncc(S(=O)(=O)NCc2ocnc2C)c1	-7	1.27
O=C(Nc1ccn(-c2ccccc2)n1)NC1CCOC(C2CC2)C1 (stereo unspecified)	-6	0.49
CC(C)(C)n1ncn(Cc2nccn2C(F)F)c1=O	-10	1.15
CC(C)(O)CNS(=O)(=O)c1ccc(Cl)cc1	3	-0.43
O=C(O)C[C@H]1CNCCN(C(=O)CCCCc2ccccc2)C1	-13	1.71
CCc1noc(CN2C[C@@](C)(Cc3ccc4c(c3)OCO4)CCC2=O)n1	-13	1.17
Cc1noc(C)c1N(C)C(=O)Nc1cccnc1	-2	0.36
CC(=O)N1C[C@H]2CN(C(=O)c3ccc(C)c(C)c3)C[C@@]2(C(=O)N2CCCC2)C1	-9	1.24
CCN(CCN1CCOCC1)C(=O)c1cc2n(n1)CCN(C(C)=O)C2	-7	1.08
COc1ccccc1C(=O)N1CCC([C@H](NC(=O)c2ccc3c(c2)OCO3)C(=O)NC(C)C)CC1	32	-0.9
O=C1C[C@@]2(CCCN(C(=O)CCc3cccc4c3OCO4)C2)CN1	-10	1.69
CC(C)(C)NC(=O)C1CCN(c2cc(-c3cccc(F)c3)ncn2)CC1	3	-0.39
CC(C)(C)c1ccc2cc(C(=O)N3CCC[C@H]3c3ccncc3)[nH]c2c1	-14	1.91
O=C(O)[C@H]1CC12CCN(Cc1ccc(F)c(F)c1)CC2	9	-0.82
